According to the supplement of paper PMC8728848:
The list shows a part of the results.

Assays:
Assay in all cases: glycan array binding signal (z-score within array); higher = stronger binding
Conditions in all cases: glycan notation: IUPAC condensed, linker removed
[1] = biological target: Gal(b1-4)GlcNAc(b1-2)[Gal(b1-4)GlcNAc(b1-4)]Man(a1-3)[GlcNAc(b1-4)][Gal(b1-4)GlcNAc(b1-2)Man(a1-6)]Man(b1-4)GlcNAc(b1-4)GlcNAc
Summary of the method: (§1)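 The binding signal is a Z-score computed within each array and averaged over linkers. Arrays of the same protein sequence at different concentrations or buffers were also averaged together. Data originate from 3228 arrays in the Consortium for Functional Glycomics database, kept only where the protein sequence was available.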

[2] = biological target: Gal(b1-4)GlcNAc(b1-2)[Gal(b1-4)GlcNAc(b1-4)]Man(a1-3)[GlcNAc(b1-4)][Gal(b1-4)GlcNAc(b1-2)[Gal(b1-4)GlcNAc(b1-6)]Man(a1-6)]Man(b1-4)GlcNAc(b1-4)GlcNAc
Summary of the method: as §1

[3] = biological target: Gal(b1-4)GlcNAc(b1-2)[Gal(b1-4)GlcNAc(b1-4)]Man(a1-3)[GlcNAc(b1-4)][Gal(b1-4)GlcNAc(b1-2)[Gal(b1-4)GlcNAc(b1-6)]Man(a1-6)]Man(b1-4)GlcNAc(b1-4)[Fuc(a1-6)]GlcNAc
Summary of the method: as §1

[4] = biological target: Gal(b1-4)GlcNAc(b1-2)[Gal(b1-4)GlcNAc(b1-6)]Man(a1-6)[Gal(b1-4)GlcNAc(b1-2)Man(a1-3)]Man(b1-4)GlcNAc(b1-4)GlcNAc
Summary of the method: as §1

[5] = biological target: Gal(b1-4)GlcNAc(b1-2)[Gal(b1-4)GlcNAc(b1-6)]Man(a1-6)[Gal(b1-4)GlcNAc(b1-2)Man(a1-3)]Man(b1-4)GlcNAc(b1-4)[Fuc(a1-6)]GlcNAc
Summary of the method: as §1

[6] = biological target: Gal(b1-4)GlcNAc(b1-2)[Gal(b1-4)GlcNAc(b1-6)]Man(a1-6)[GlcNAc(b1-4)][Gal(b1-4)GlcNAc(b1-2)Man(a1-3)]Man(b1-4)GlcNAc(b1-4)GlcNAc
Summary of the method: as §1

[7] = biological target: Gal(b1-4)GlcNAc(b1-3)Gal(b1-3)GlcNAc
Summary of the method: as §1

[8] = biological target: Gal(b1-4)GlcNAc(b1-3)Gal(b1-4)Glc
Summary of the method: as §1

[9] = biological target: Gal(b1-4)GlcNAc(b1-3)Gal(b1-4)GlcNAc
Summary of the method: as §1

[10] = biological target: Gal(b1-4)GlcNAc(b1-3)Gal(b1-4)GlcNAc(b1-3)Gal(b1-4)GlcNAc
Summary of the method: as §1

[11] = biological target: Gal(b1-4)GlcNAc(b1-3)Gal(b1-4)[Fuc(a1-3)GlcNAc(b1-6)]Gal(b1-4)Glc
Summary of the method: as §1

[12] = biological target: Gal(b1-4)GlcNAc(b1-3)Gal(b1-4)[Fuc(a1-3)]GlcNAc(b1-3)Gal(b1-4)[Fuc(a1-3)]GlcNAc
Summary of the method: as §1

[13] = biological target: Gal(b1-4)GlcNAc(b1-3)GalNAc
Summary of the method: as §1

[14] = biological target: Gal(b1-4)GlcNAc(b1-3)[Gal(b1-4)GlcNAc(b1-6)]Gal(b1-4)GlcNAc
Summary of the method: as §1

[15] = biological target: Gal(b1-4)GlcNAc(b1-3)[Gal(b1-4)GlcNAc(b1-6)]GalNAc
Summary of the method: as §1

[16] = biological target: Gal(b1-4)GlcNAc(b1-3)[GlcNAc(b1-6)]Gal(b1-4)GlcNAc
Summary of the method: as §1

[17] = biological target: Gal(b1-4)GlcNAc(b1-6)Gal(b1-4)GlcNAc
Summary of the method: as §1

[18] = biological target: Gal(b1-4)GlcNAc(b1-6)GalNAc
Summary of the method: as §1

[19] = biological target: Gal(b1-4)GlcNAc(b1-6)[Gal(b1-3)]GalNAc
Summary of the method: as §1

[20] = biological target: Gal(b1-4)GlcNAc6P
Summary of the method: as §1

[21] = biological target: Gal(b1-6)Gal
Summary of the method: as §1

[22] = biological target: Gal3S(b1-3)GalNAc
Summary of the method: as §1

[23] = biological target: Gal3S(b1-3)GlcNAc
Summary of the method: as §1

[24] = biological target: Gal3S(b1-3)[Fuc(a1-4)]GlcNAc
Summary of the method: as §1

[25] = biological target: Gal3S(b1-4)Glc
Summary of the method: as §1

[26] = biological target: Gal3S(b1-4)Glc6S
Summary of the method: as §1

[27] = biological target: Gal3S(b1-4)GlcNAc
Summary of the method: as §1

[28] = biological target: Gal3S(b1-4)GlcNAc6S
Summary of the method: as §1

[29] = biological target: Gal3S(b1-4)[Fuc(a1-3)]Glc
Summary of the method: as §1

[30] = biological target: Gal3S(b1-4)[Fuc(a1-3)]Glc6S
Summary of the method: as §1

[31] = biological target: Gal3S4S(b1-4)GlcNAc
Summary of the method: as §1

[32] = biological target: Gal3S6S(b1-4)GlcNAc
Summary of the method: as §1

[33] = biological target: Gal3S6S(b1-4)GlcNAc6S
Summary of the method: as §1

[34] = biological target: Gal4S(b1-4)GlcNAc
Summary of the method: as §1

[35] = biological target: Gal4S6S(b1-4)GlcNAc
Summary of the method: as §1

[36] = biological target: Gal6P(b1-4)GlcNAc
Summary of the method: as §1

[37] = biological target: Gal6S(b1-3)GlcNAc
Summary of the method: as §1

[38] = biological target: Gal6S(b1-3)GlcNAc6S
Summary of the method: as §1

[39] = biological target: Gal6S(b1-4)Glc
Summary of the method: as §1

[40] = biological target: Gal6S(b1-4)Glc6S
Summary of the method: as §1

[41] = biological target: Gal6S(b1-4)GlcNAc
Summary of the method: as §1

[42] = biological target: Gal6S(b1-4)GlcNAc6S
Summary of the method: as §1

[43] = biological target: GalNAc(a1-3)Gal
Summary of the method: as §1

[44] = biological target: GalNAc(a1-3)GalNAc
Summary of the method: as §1

[45] = biological target: GalNAc(a1-3)GalNAc(b1-3)Gal(a1-4)Gal(b1-4)Glc
Summary of the method: as §1

[46] = biological target: GalNAc(a1-3)GalNAc(b1-3)Gal(a1-4)Gal(b1-4)GlcNAc
Summary of the method: as §1

[47] = biological target: GalNAc(b1-3)Gal
Summary of the method: as §1

[48] = biological target: GalNAc(b1-3)Gal(a1-4)Gal(b1-4)GlcNAc
Summary of the method: as §1

[49] = biological target: GalNAc(b1-3)Gal(a1-4)Gal(b1-4)GlcNAc(b1-3)Gal(b1-4)Glc
Summary of the method: as §1

[50] = biological target: GalNAc(b1-3)Gal(a1-6)Gal(b1-4)Glc
Summary of the method: as §1

[51] = biological target: GalNAc(b1-3)GalNAc
Summary of the method: as §1

[52] = biological target: GalNAc(b1-4)Gal(b1-4)Glc
Summary of the method: as §1

[53] = biological target: GalNAc(b1-4)GlcNAc
Summary of the method: as §1

[54] = biological target: GalNAc(b1-4)GlcNAc(b1-2)Man(a1-3)[GalNAc(b1-4)GlcNAc(b1-2)Man(a1-6)]Man(b1-4)GlcNAc(b1-4)GlcNAc
Summary of the method: as §1

[55] = biological target: GalNAc(b1-4)GlcNAc6S
Summary of the method: as §1

[56] = biological target: GalNAc(b1-6)GalNAc
Summary of the method: as §1

[57] = biological target: GalNAc3S(b1-4)GlcNAc
Summary of the method: as §1

[58] = biological target: GalNAc3S(b1-4)GlcNAc3S
Summary of the method: as §1

[59] = biological target: GalNAc4S6S(b1-4)GlcNAc
Summary of the method: as §1

[60] = biological target: GalNAc6S(b1-4)GlcNAc
Summary of the method: as §1

B1: CvGal1 (Crassostrea virginica), A7Y0I5 (protein)
chain: MTYQISKISQPFTSYIPNGLHIGKHLLLRGRVSYGTEAFAINLQQNPEPCNGEVAFHFNPRPGEQQCVRNSFDGGSWMDEERDQPHFPFDEGRSFTLRIEVAEEGFRTYVNGKPYVNFSHRLDLGNVHYLYLTEGAEFYDISYQDRYTLPYKSEIPQQMNVGKAVRIRGASQDNDGFSVNFACDPDNENCAFHFNPRPNEGVVVRNANLGGWGDEERDYEAEFPFHPYNYFDAMFICTDDKYLVHVNDKYFTEFNHRGGVDASSFFNIVGNLDIQDVEYFEPLEDDFVKTIPSGLVKGDVLIFRGFMKPGGDTFSINFMNGYSVEDDIAFHLNPRVGEGQVVMNCCMGGAWGDEEREDIPSPLADREPFEVKVVVKKNKFKVYVNGKKCMKFAARGNLEDIKGVNIKGEAYVYEVKLERKLEDSWEYLPGGFRVGGWVVVQAIPKKGSEGFAINFRTGSDEDSDIAFHFNPRLQENCTIRNSCAGGAWGGEERDQPDFPFEKKDTCEIAIQAQPDRFVTYVNGKRYIEFNHRLPLESITCVELTGRADFFEPKFF
[1]
  glycan array binding signal (z-score): 0.373
[2]
  glycan array binding signal (z-score): 0.119
[3]
  glycan array binding signal (z-score): -0.057
[4]
  glycan array binding signal (z-score): -0.201
[5]
  glycan array binding signal (z-score): -0.134
[6]
  glycan array binding signal (z-score): -0.118
[7]
  glycan array binding signal (z-score): -0.209
[8]
  glycan array binding signal (z-score): -0.253
[9]
  glycan array binding signal (z-score): -0.214
[10]
  glycan array binding signal (z-score): -0.172
[11]
  glycan array binding signal (z-score): -0.264
[12]
  glycan array binding signal (z-score): -0.264
[13]
  glycan array binding signal (z-score): -0.248
[14]
  glycan array binding signal (z-score): 0.12
[15]
  glycan array binding signal (z-score): -0.236
[16]
  glycan array binding signal (z-score): -0.268
[17]
  glycan array binding signal (z-score): -0.269
[18]
  glycan array binding signal (z-score): -0.267
[19]
  glycan array binding signal (z-score): -0.281
[20]
  glycan array binding signal (z-score): -0.272
[21]
  glycan array binding signal (z-score): -0.276
[22]
  glycan array binding signal (z-score): -0.239
[23]
  glycan array binding signal (z-score): -0.142
[24]
  glycan array binding signal (z-score): -0.258
[25]
  glycan array binding signal (z-score): -0.263
[26]
  glycan array binding signal (z-score): -0.22
[27]
  glycan array binding signal (z-score): -0.277
[28]
  glycan array binding signal (z-score): -0.288
[29]
  glycan array binding signal (z-score): -0.315
[30]
  glycan array binding signal (z-score): -0.223
[31]
  glycan array binding signal (z-score): -0.279
[32]
  glycan array binding signal (z-score): -0.269
[33]
  glycan array binding signal (z-score): -0.273
[34]
  glycan array binding signal (z-score): -0.296
[35]
  glycan array binding signal (z-score): -0.212
[36]
  glycan array binding signal (z-score): -0.272
[37]
  glycan array binding signal (z-score): -0.297
[38]
  glycan array binding signal (z-score): -0.231
[39]
  glycan array binding signal (z-score): -0.291
[40]
  glycan array binding signal (z-score): -0.256
[41]
  glycan array binding signal (z-score): -0.27
[42]
  glycan array binding signal (z-score): -0.182
[43]
  glycan array binding signal (z-score): -0.235
[44]
  glycan array binding signal (z-score): -0.255
[45]
  glycan array binding signal (z-score): 3.5
[46]
  glycan array binding signal (z-score): 1.87
[47]
  glycan array binding signal (z-score): -0.286
[48]
  glycan array binding signal (z-score): -0.309
[49]
  glycan array binding signal (z-score): -0.29
[50]
  glycan array binding signal (z-score): -0.271
[51]
  glycan array binding signal (z-score): -0.247
[52]
  glycan array binding signal (z-score): -0.266
[53]
  glycan array binding signal (z-score): -0.249
[54]
  glycan array binding signal (z-score): -0.184
[55]
  glycan array binding signal (z-score): -0.266
[56]
  glycan array binding signal (z-score): -0.307
[57]
  glycan array binding signal (z-score): -0.261
[58]
  glycan array binding signal (z-score): -0.222
[59]
  glycan array binding signal (z-score): -0.283
[60]
  glycan array binding signal (z-score): -0.302
